The values that follow come from PubChem BioAssay AID463173 (ICCB-Longwood Screening Facility, Harvard Medical School, 2010).

The whole screen tested about 52,000 compounds, of which about 1,700 (3.3%) were called active. Rule as the data show it: active = survival mostly below about 52% (no sharp cut-off); inactive = mostly above about 56%. This is one part of the list.

The test system of the experiment is Wild type. The experiment in a line: growth inhibition of S. aureus wild type versus tarO mutant, primary screen, teichoic acid synthesis inhibitors, RN4220, OD600 (AID 463173). The settings on record: S. aureus RN4220 wild type/DeltatarO growth, OD600, 18 h, stronger effect = lower value, screened at 18.75 µg/mL (by protocol).
As for `COC(=O)c1c(NC(=O)c2nc(SCc3cccc(C)c3)ncc2Cl)sc2c1CCCC2`, the survival is inactive: 120%. For the compound `COc1ccc(-n2nnc(-c3nc(-c4cccs4)no3)c2N)cc1OC`, the survival was inactive: 100%. Consider `CC(=O)N1CCCC1c1nc2ccccc2n1Cc1cccc(Cl)c1` (configuration not stated), for which the survival was inactive: 84%. With `CCc1ccc(CNC(=O)COc2cc(=O)n(CC)c3ccccc23)cc1`, the survival is inactive: 51%. Regarding `Cc1ccc(-c2noc(-c3ccc(NCc4ccco4)c([N+](=O)[O-])c3)n2)cc1`, the survival is inactive: 104%. Then `COc1cc(NC(=O)CC(c2ccc(C)cc2)N2Cc3ccccc3C2=O)cc(OC)c1` (configuration not stated), with inactive: 60%; and `COc1ccc(C(=O)Nc2ccc(NC(=O)c3ccco3)cc2)cc1OC`, with inactive: 107%.

Take `COc1ccc(-c2nc(C)c(CCNC(=O)C(=O)Nc3ccccc3C#N)s2)cc1OC`: the survival was inactive: 63%. Under `COc1cc(C2CC(=O)c3c([nH]c(C(=O)OCC4CCCCC4)c3C)C2)cc(OC)c1OC` (configuration not stated) stands inactive: 108%; under `COc1ccc(S(=O)(=O)C(C)(C)C)cc1`, inactive: 92%; under `CCc1nn2c(=O)cc(COC(=O)c3ccc(NC(=O)c4cccs4)cc3)nc2s1`, inactive: 70%.

In the case of `COc1ccccc1C(=O)Nc1nc2nc(-c3ccccc3)cc(=O)n2[nH]1`, the survival was inactive: 92%. In the case of `Cc1ccccc1NS(=O)(=O)c1ccc2[nH]cc(C(=O)NC(C)c3ccccc3)c(=O)c2c1` (configuration not stated), the survival is inactive: 73%. Take `COc1ccc(Nc2nnc(-c3cc4c(ccc5ccccc54)oc3=O)s2)cc1`: the survival was inactive: 74%. Regarding `COc1ccccc1CCNC(=O)C(=O)NCC(c1cccs1)S(=O)(=O)c1ccc(C)cc1` (configuration not stated), the survival was inactive: 86%. On to `Cc1ccc(C)c(CNC(=O)C2CCN(c3nc4ccccc4nc3C(F)(F)F)CC2)c1`, for which the survival was inactive: 88%. Take `CCOc1ccccc1CNC(=O)Cn1ncn2nc(-c3cccs3)cc2c1=O`: the survival is inactive: 93%. With `O=C1C(=O)N(C2CCN(C(=O)c3ccc(Cl)cc3)CC2)CCN1Cc1ccc(F)cc1`, the survival is inactive: 70%. Consider `CCN1CCN(CCC(=O)Nc2ccc3c(c2)CCC3)CC1`, for which the survival was inactive: 103%. `CCN(CC)CCCNC(=O)c1ccc2nc(N3CCCCC3)sc2c1`: the survival is inactive: 72%. On to `CCNC(=O)c1ccc2nc(CCc3ccccc3)oc2c1`, for which the survival is inactive: 74%. Take `Cc1cc(Nc2ccccc2C)nc(-n2nc(C)cc2C)n1`: the survival was inactive: 59%. On to `COc1ccc(CCNC(=O)c2cc(C)nc3c2c(C)nn3-c2ccc(C)cc2)cc1OC`, for which the survival is inactive: 81%. Consider `Cc1n[nH]c(C)c1S(=O)(=O)N1CCCC(C(=O)Nc2ccc(Br)cc2)C1` (configuration not stated), for which the survival was inactive: 128%.

Take `O=C1c2ccccc2C(=O)N1COc1cccc2cccnc12`: the survival was inactive: 101%. Then `CCOc1ccccc1C(=O)N(Cc1cc(OC)c(OC)c(OC)c1)C1CCS(=O)(=O)C1` (configuration not stated), with inactive: 82%; and `O=C(CN1CCSc2ccccc21)NCc1ccccc1F`, with inactive: 100%. As to `CCCN(C(=O)c1cn(C)c(=O)c2ccccc12)c1ccccc1C`, the survival was inactive: 97%. Under `COc1ccc2nc(N(Cc3cccnc3)C(=O)C3COc4ccccc4O3)sc2c1` (configuration not stated) stands inactive: 80%; under `CCOc1ccccc1CN1CCc2nc(N3CCN(c4ccccc4F)CC3)ncc2C1`, active: -6%. On to `CCCOc1ccc(CN(C(=O)c2cc(=O)c3ccc(C)cc3o2)C2CCS(=O)(=O)C2)cc1` (configuration not stated), for which the survival is inactive: 75%. Consider `COc1ccc(N2CCN(S(=O)(=O)CCNC(=O)C3CC(=O)N(c4ccccc4)C3)CC2)cc1` (configuration not stated), for which the survival is inactive: 73%. Then `Cc1nc(CC(=O)Nc2cc(Cl)ccc2C)cs1`, with inactive: 85%; and `COc1cc(C)ccc1OCCSc1nc(-c2cccc(C)c2)nc2cc(=O)[nH]n12`, with inactive: 88%; and `COc1cccc(C(=O)CC2(O)C(=O)Nc3ccc(Cl)cc32)c1` (configuration not stated), with inactive: 120%. Under `CCOC(=O)c1ccc(C(=O)OCC)nc1` stands inactive: 106%. Then `CCOc1ccc(NC(=O)CSc2nc3c(c(=O)[nH]2)CCCC3)cc1`, with inactive: 86%. Turning to `COc1ccc(C)cc1NC(=O)COCc1cc(-c2cccs2)on1`, the survival was inactive: 73%. Under `CCOc1ccc(-c2cc(C#N)on2)cc1` stands inactive: 97%; under `Cc1ccc(N(C)C(=O)Cn2cnc3onc(-c4ccc(F)cc4)c3c2=O)cc1C`, inactive: 73%; under `O=C(Nc1ccccc1)c1cnc[nH]1`, inactive: 112%.

On to `COc1cc(C2c3c(oc4ccc(F)cc4c3=O)C(=O)N2c2nc(C)c(C)s2)cc(OC)c1OC` (configuration not stated), for which the survival is inactive: 132%. Regarding `O=C(CCS(=O)(=O)c1cc(Br)cc2c1N(C(=O)C1CC1)CC2)N1CCN(c2ccc(F)cc2)CC1`, the survival is inactive: 75%. Under `O=C1CCC(=O)N1c1ccccc1` stands inactive: 103%; under `Cc1cc2cc(C#N)c(N3CCOCC3)nc2cc1Cl`, inactive: 105%; under `COc1ccc(CCNC(=O)CCCn2c(=O)c3ccccc3n(Cc3ccc(C)cc3)c2=O)cc1OC`, inactive: 92%.

As for `Cc1ccc2ncc(C(=O)NCCc3ccc(S(N)(=O)=O)cc3)c(=O)n2c1`, the survival was inactive: 93%.

For `Cc1nn2c(C)c(C(=O)N3CCN(c4ccccc4)CC3)cnc2c1-c1ccccc1`, the survival is inactive: 73%.

Take `Cc1ccc(CCNC(=O)c2cc3c(=O)oc4ccccc4c3s2)cc1`: the survival is inactive: 73%. Then `O=C(c1csc(Nc2ccccc2Cl)n1)N1CCCC1`, with inactive: 112%; and `COc1ccccc1OCCn1c(COc2cc(C)ccc2C)nc2ccccc21`, with inactive: 87%.

With `CCOc1ccccc1Nc1sc(C(=O)c2ccccc2)c(N)c1C(=O)NCCc1ccccc1`, the survival was inactive: 124%.

Consider `O=C(c1ccc(Cl)cc1)N(Cc1ccco1)Cc1ccco1`, for which the survival is inactive: 102%. Then `COc1cccc(CNC(=O)CNS(=O)(=O)c2ccc3nc(C)sc3c2)c1`, with inactive: 79%. On to `CC(C)/C=N/NC(=O)c1ccccc1`, for which the survival is inactive: 109%. Then `COc1cc(NC(=O)CSc2nc3ccccc3nc2Cc2ccccc2OC)cc(OC)c1`, with inactive: 66%; and `C/C(=N\Nc1nc2sc3c(c2c2ncnn12)CC(C)(C)OC3)C(=O)O`, with inactive: 102%; and `COc1ccc(NC(=O)Cn2c(=O)n(CC3CCCO3)c(=O)c3ccccc32)c(OC)c1` (configuration not stated), with inactive: 86%. As for `COc1cc(OC)cc(C(=O)Nc2ccc3oc(-c4ccccc4C)nc3c2)c1`, the survival was inactive: 55%. Then `CCC(=O)Nc1ccc(C)cc1-c1nc2ccccc2n(CC(=O)Nc2ccccc2Cl)c1=O`, with inactive: 107%; and `CC(C)CNc1nc(NC(C)(C)C)nc(Oc2ccc(=O)n(-c3ccccc3)n2)n1`, with inactive: 84%; and `Cc1ccccc1NC(=O)c1c(C)oc2ccc(O)c(CN3CCCC3)c12`, with inactive: 89%. Then `CCN(CC)S(=O)(=O)c1nnc(NC(=O)c2ccccc2Cl)s1`, with inactive: 69%; and `COc1cccc(-c2cc(C(=O)Nc3cc(C)nn3-c3ccccc3)no2)c1`, with inactive: 89%; and `Cc1ccc(C)c2sc(NC(=O)c3ccc(S(=O)(=O)N4CCCC4)cc3)nc12`, with inactive: 19%. Under `O=C(c1cc2ccc3cccnc3c2[nH]1)N1CCN(c2cccc(C(F)(F)F)c2)CC1` stands active: -2%; under `Cc1ccc(NC(=O)c2oc3ccc(S(=O)(=O)N4CCCCC4)cc3c2C)cc1C`, inactive: 77%. For the compound `COc1ccc2c(c1)c1c(c(=O)n(CCc3ccccc3)c(=O)n1Cc1ccccc1)n2C`, the survival was inactive: 57%. Then `COc1ccc(-c2cc(C(F)(F)F)nc(SCC(=O)N(C)Cc3ccccc3)n2)cc1OC`, with inactive: 45%. Then `CCOc1ccc(CNC(=O)c2ccc3c(c2)nc2n3CCOC2)cc1`, with inactive: 57%; and `CC(=O)N1CCOc2cc(S(=O)(=O)NCc3ccc(C)cc3)c(C)cc21`, with inactive: 81%; and `CCN1CCN(CCCNC(=O)c2cc3c(=O)n(CC)c4ccccc4c3s2)CC1`, with inactive: 85%. Under `Cc1c(CNCc2ccc(OC(C)C)cc2)c(C(=O)O)c(C)n1Cc1ccc(Cl)cc1` stands inactive: 122%. Consider `COc1ccc(N(C(=O)c2ccccc2F)S(=O)(=O)c2ccc3c(c2)n(C)c(=O)n3C)cc1`, for which the survival is inactive: 83%. Then `COc1ccc(CCNC(N)=S)cc1OC`, with inactive: 90%; and `Cc1ccc(C)c(CN2C(=O)c3ccccc3S(=O)c3ccc(C(=O)N4CCC(C)CC4)cc32)c1` (configuration not stated), with inactive: 92%; and `CCOC(=O)c1cccc(NC(=O)c2cc(S(=O)(=O)N3CCCCCC3)cn2C)c1`, with inactive: 71%. Turning to `COc1ccc(CNc2oc(-c3ccc(COc4ccc(Cl)cc4)o3)nc2C#N)cc1`, the survival was inactive: 127%. Under `CCC(C)(C)NS(=O)(=O)c1cc(-c2cc(C)no2)ccc1C` stands inactive: 82%; under `CCN1c2ccccc2-c2nc(SCC(=O)Nc3cccc(C(F)(F)F)c3)ncc2S1(=O)=O`, inactive: 79%; under `COc1cc(O)ccc1C1CC(=O)Nc2c1c(=O)nc(SCc1ccccc1C)n2C` (configuration not stated), inactive: 108%. Then `COc1ccc(CNC(=O)c2c(Nc3ccc(OC)cc3OC)sc(C(=O)c3ccc(Cl)cc3)c2N)cc1`, with inactive: 66%; and `CCOC(=O)CSc1nc2sc3c(c2c(=O)n1Cc1ccccc1)CCC(C(C)(C)C)C3` (configuration not stated), with inactive: 90%. For `S=c1nc[nH]c2c1[nH]c1ccccc12`, the survival was inactive: 98%. Consider `CC(C)OCCCNC(=O)CCCn1c(=O)[nH]c2ccsc2c1=O`, for which the survival is inactive: 70%. In the case of `Cc1ccc(CNC(=O)C2CCC(CNS(=O)(=O)c3ccc4c(c3)CCCC(=O)N4)CC2)cc1` (configuration not stated), the survival is inactive: 71%.

Take `CC1CCCCN1C(=S)Nc1ccccc1` (configuration not stated): the survival is inactive: 96%.

For `COc1ccc(CN(C(=O)c2cc3ccccc3oc2=O)C2CCS(=O)(=O)C2)cc1` (configuration not stated), the survival is inactive: 72%. Under `O=C(O)CSC1=NCCCN1` stands inactive: 89%. As for `CCOc1ccc(CNC(=O)c2cc(=O)[nH]c3ccc(S(=O)(=O)N4CCCCC4)cc23)cc1`, the survival was inactive: 82%. As for `Cc1cc(C)cc(Nc2cc(C(=O)NCCCN(Cc3ccccc3)C(C)C)c3ccccc3n2)c1`, the survival is active: -6%. Under `C=CCn1cnc2scc(-c3ccccc3)c2c1=O` stands inactive: 90%.
